Laboratory results from US20140294866A1 (Amgen, published 2014).

T1: recombinant mature myostatin (human, produced in E. coli) (human) (UniProt O14793)
T1 sequence (looked up): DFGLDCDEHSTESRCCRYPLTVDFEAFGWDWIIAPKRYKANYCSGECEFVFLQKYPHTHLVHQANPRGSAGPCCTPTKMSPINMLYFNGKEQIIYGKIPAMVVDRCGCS

T2: recombinant mature myostatin (human, produced in E. coli) (human, UniProt O14793 267-375)
T2 sequence (looked up): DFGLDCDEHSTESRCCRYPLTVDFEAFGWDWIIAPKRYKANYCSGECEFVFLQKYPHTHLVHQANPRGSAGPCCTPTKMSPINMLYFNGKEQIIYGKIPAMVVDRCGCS


Experiments:
[1] = target: T1, recombinant mature myostatin (human, produced in E. coli) (human); test: cell-based or functional assay
[2] = target: T2, recombinant mature myostatin (human, …); test: cell-based or functional assay
[3] = target: T2, recombinant mature myostatin (human, …); test: BIAcore, myostatin immobilized on CM5 chip
[4] = target: T2, recombinant mature myostatin (human, …); test: KinExA solution based assay or BIAcore assay (not said which)

Row | Binder | IC50 (nM), C2C12 pMARE-luc myostatin activity assay [1] | further results
1 | mTN8-19-4 peptibody (Fc fusion) [left out - human IgG1 Fc]GGGGGAQMITQGQCTRWPWMCPPQPSGLE | 16.7 nM | 
2 | mTN8-19-6 peptibody (Fc fusion) [left out - human IgG1 Fc]GGGGGAQGVNQGQCTRWRWMCPPNGWELE | 17.3 nM | 
3 | mTN8-19-11 peptibody (Fc fusion) [left out - human IgG1 Fc]GGGGGAQIYPHDQCTRWPWMCPPQPYPLE | 28.7 nM | 
4 | mTN8-19-12 peptibody (Fc fusion) [left out - human IgG1 Fc]GGGGGAQSYWQGQCTRWPWMCPPQWRGLE | 980 nM | 
5 | Myostatin-TN12-34 peptibody (Fc fusion) MAHWCEQGPWRYGNICMAYGGGGG[left out - human IgG1 Fc]GGGGGAHWCEQGPWRYGNICMAY | 30 nM | 
6 | Myostatin-Linear-20 peptibody (Fc fusion) MYREMSMLEGLLDVLERLQHYGGGGG[left out - human IgG1 Fc] | 11 nM | 
7 | mL2-7 peptibody (Fc fusion) MAQRMEMLESLFELLKEIVPMSKAGLEGGGGG[left out - human IgG1 Fc] | 90.2 nM | 
8 | mL2-9 peptibody (Fc fusion) MAQQMELLDSLFELLKEIVPKSQPALEGGGGG[left out - human IgG1 Fc] | 106 nM | 
9 | mL15-7 peptibody (Fc fusion) [left out - human IgG1 Fc]GGGGGAQQVDSLQQVLLWLEHKLALGPQVLE | 32.8 nM | 
10 | mL15-9 peptibody (Fc fusion) [left out - human IgG1 Fc]GGGGGAQQIEMLESLLDLLRDMVPMSNAFLE | 354 nM | 
11 | mL20-2 peptibody (Fc fusion) [left out - human IgG1 Fc]GGGGGAQTQRDMSMLDGLLEVLDQLRQQRLE | 123 nM | 
12 | mL20-3 peptibody (Fc fusion) [left out - human IgG1 Fc]GGGGGAQTSRDMSLLWELLEELDRLGHQRLE | 158 nM | 
13 | mL20-4 peptibody (Fc fusion) [left out - human IgG1 Fc]GGGGGAQMQHDMSMLYGLVELLESLGHQILE | 160 nM | 
14 | Myostatin-2xTN8-19 kc peptibody (Fc fusion, also called 2xmTN8-19 (parent)) [left out - human IgG1 Fc]GSGSATGGSGSTASSGSGSATGQGHCTRWPWMCPPYGSGSATGGSGSTASSGSGSATGQGHCTRWPWMCPPY |  | IC50 (nM), C2C12 pMARE-luc myostatin activity assay [2]: ~9 nM; Kd [3]: ~2 nM; Kd [4]: > 1 nM

The next lines start with results.

Row | IC50 (nM), C2C12 pMARE-luc myostatin activity assay [1] | Binder | further results
15 | 20 nM | mTN8-19-13 peptibody (Fc fusion) [left out - human IgG1 Fc]GGGGGAQMWQQGHCTRWPWMCPPQGWGLE | 
16 | 4.65 nM | mTN8-19-16 peptibody (Fc fusion) [left out - human IgG1 Fc]GGGGGAQYQTQGLCTRWPWMCPPQSQRLE | 
17 | 6.58 nM | mTN8-19-23 peptibody (Fc fusion) [left out - human IgG1 Fc]GGGGGAQPGAHDHCTRWPWMCPPQSRYLE | 
18 | 4.39 nM | mTN8-19-28 peptibody (Fc fusion) [left out - human IgG1 Fc]GGGGGAQSGPQGHCTRWPWMCAPQGWFLE | 
19 | 6.36 nM | mTN8-19-29 peptibody (Fc fusion) [left out - human IgG1 Fc]GGGGGAQTLVQGHCTRWPWMCPPQRWVLE | 
20 | 86.8 nM | mTN8Con6-3 peptibody (Fc fusion) [left out - human IgG1 Fc]GGGGGAQWTGWYQCYGGHLWCYDLRRKLE | 
21 | 2380 nM | mTN8Con6-5 peptibody (Fc fusion) [left out - human IgG1 Fc]GGGGGAQESRWYPCYEGHLWCFDLTETLE | 
22 | 2.49 nM | mTN8-19-21(-LE) peptibody (Fc fusion) [left out - human IgG1 Fc]GGGGGAQSEYQGLCTRWPWMCPPQGWK | 
23 | 1.81 nM | mTN8-19-33(-LE) peptibody (Fc fusion) [left out - human IgG1 Fc]GGGGGAQPESQGHCTRWPWMCPPQGWG | 
